Source: the supplement of paper PMC4967469

Columns and labels:
Assay in all cases: Viability of human cancer cell lines after 72 h of drug (GDSC screen)
KU-55933 = compound: O=c1cc(-c2cccc3c2Sc2ccccc2S3)oc(N2CCOCC2)c1 [KU-55933]; settings: top dose 10 µM
Protocol: (§1)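 Human cancer cell lines in 384-well plates, medium with 10% serum, drug for 72 h over a 256-fold dose range (nine 2-fold or five 4-fold steps up to the top dose). Adherent lines were fixed and stained with the nucleic acid dye Syto60, suspension lines read with resazurin; signal relative to control wells, capped at 0 and 100%. One two-parameter sigmoid per drug and line, fitted in a mixed model over all curves with the slope shared within a line.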

CHIR-99021 = compound: Cc1cnc(-c2cnc(NCCNc3ccc(C#N)cn3)nc2-c2ccc(Cl)cc2Cl)[nH]1 [CHIR-99021]
Protocol: as §1

Zibotentan = compound: COc1nc(C)cnc1NS(=O)(=O)c1cccnc1-c1ccc(-c2nnco2)cc1 [Zibotentan]; settings: top dose 20 µM; top dose inferred
Protocol: as §1

Thapsigargin = compound: C/C=C(/C)C(=O)O[C@H]1C(C)=C2[C@H]([C@@H]1OC(=O)CCCCCCC)[C@@](C)(OC(C)=O)C[C@H](OC(=O)CCC)[C@@]1(O)[C@H]2OC(=O)[C@@]1(C)O [Thapsigargin]; settings: top dose 0.512 µM; top dose inferred
Protocol: as §1

Cytarabine = compound: Nc1ccn([C@@H]2O[C@H](CO)[C@@H](O)[C@@H]2O)c(=O)n1 [Cytarabine]; settings: top dose 2 µM
Protocol: as §1

ABT-888 = compound: C[C@]1(c2nc3c(C(N)=O)cccc3[nH]2)CCCN1 [ABT-888]; settings: top dose 5 µM; top dose inferred
Protocol: as §1

ABT-869 = compound: Cc1ccc(F)c(NC(=O)Nc2ccc(-c3cccc4[nH]nc(N)c34)cc2)c1 [ABT-869]; settings: top dose 1.024 µM; top dose inferred
Protocol: as §1

GSK269962A = compound: CCn1c(-c2nonc2N)nc2cnc(Oc3cccc(NC(=O)c4ccc(OCCN5CCOCC5)cc4)c3)cc21 [GSK269962A]; settings: top dose 5 µM; screen: GDSC drug entry 1192; top dose inferred
Protocol: as §1

CP466722 = compound: COc1cc2ncnc(-n3nc(-c4ccccn4)nc3N)c2cc1OC [CP466722]; settings: top dose 16 µM; top dose inferred
Protocol: as §1

QL-X-138 = compound: C=CC(=O)Nc1cc(-n2c(=O)ccc3cnc4ccc(-c5cn[nH]c5)cc4c32)ccc1C [QL-X-138]; settings: top dose 10.24 µM; top dose inferred
Protocol: as §1

MPS-1-IN-1 = compound: COc1cc(N2CCC(O)CC2)ccc1Nc1cc(Nc2ccccc2S(=O)(=O)C(C)C)c2cc[nH]c2n1 [MPS-1-IN-1]; settings: top dose 20 µM; top dose inferred
Protocol: as §1

(5Z)-7-Oxozeaenol = compound: COc1cc(O)c2c(c1)/C=C/C[C@H](O)[C@H](O)C(=O)/C=C\C[C@H](C)OC2=O [(5Z)-7-Oxozeaenol]; settings: top dose 10 µM; top dose inferred
Protocol: as §1

[1] = top dose 2.56 µM, screen: GDSC drug entry 154
[2] = top dose 10 µM, screen: GDSC drug entry 1241, top dose inferred

With AGS (stomach, adherent) the AUC (KU-55933) was 0.95, the IC50 (KU-55933) was greater than 10 µM and the AUC (CHIR-99021; [1]) was 0.99. For the same cell line, the IC50 (CHIR-99021; [1]) was greater than 2.56 µM, the AUC (Zibotentan) was 0.99 and the IC50 (Zibotentan) was greater than 20 µM. The AUC (Thapsigargin) was 0.336, the IC50 (Thapsigargin) was 0.0118 µM and the AUC (Cytarabine) was 0.803. It also gave an IC50 (Cytarabine) of 0.873 µM, an AUC (ABT-888) of 0.99 and an IC50 (ABT-888) greater than 5 µM. The AUC (ABT-869) was 0.989, the IC50 (ABT-869) was greater than 1.02 µM and the AUC (GSK269962A) was 0.721. The IC50 (GSK269962A) was 1.23 µM, the AUC (CP466722) was 0.986 and the IC50 (CP466722) was greater than 16 µM. It also gave an AUC (QL-X-138) of 0.919, an IC50 (QL-X-138) greater than 10.2 µM and an AUC (MPS-1-IN-1) of 0.929. The IC50 (MPS-1-IN-1) was greater than 20 µM.
In the case of CAPAN-1 (pancreas, adherent), the AUC (KU-55933) is reported as 0.975, the IC50 (KU-55933) is reported as greater than 10 µM and the AUC (CHIR-99021; [1]) is reported as 0.984. It also gave an IC50 (CHIR-99021; [1]) greater than 2.56 µM, an AUC (Zibotentan) of 0.983 and an IC50 (Zibotentan) greater than 20 µM. For the same cell line, the AUC (Thapsigargin) was 0.241, the IC50 (Thapsigargin) was 0.00516 µM and the AUC (Cytarabine) was 0.692. For the same cell line, the IC50 (Cytarabine) was 0.46 µM, the AUC (ABT-888) was 0.979 and the IC50 (ABT-888) was greater than 5 µM. It also gave an AUC (ABT-869) of 0.986, an IC50 (ABT-869) greater than 1.02 µM and an AUC (GSK269962A) of 0.985. The IC50 (GSK269962A) was greater than 5 µM, the AUC (CP466722) was 0.866 and the IC50 (CP466722) was greater than 16 µM. It also gave an AUC (QL-X-138) of 0.828, an IC50 (QL-X-138) of 7.28 µM and an AUC (MPS-1-IN-1) of 0.939. For the same cell line, the IC50 (MPS-1-IN-1) was greater than 20 µM.
With FADU (head and neck, adherent) the AUC (KU-55933) was 0.984, the IC50 (KU-55933) was greater than 10 µM and the AUC (CHIR-99021; [1]) was 0.988. The IC50 (CHIR-99021; [1]) was greater than 2.56 µM, the AUC (Zibotentan) was 0.987 and the IC50 (Zibotentan) was greater than 20 µM. The AUC (Thapsigargin) was 0.41, the IC50 (Thapsigargin) was 0.0183 µM and the AUC (Cytarabine) was 0.755. The IC50 (Cytarabine) was 0.657 µM, the AUC (ABT-888) was 0.988 and the IC50 (ABT-888) was greater than 5 µM. It also gave an AUC (ABT-869) of 0.987, an IC50 (ABT-869) greater than 1.02 µM and an AUC (GSK269962A) of 0.939. It also gave an IC50 (GSK269962A) greater than 5 µM, an AUC (CP466722) of 0.918 and an IC50 (CP466722) greater than 16 µM. For the same cell line, the AUC (QL-X-138) was 0.907, the IC50 (QL-X-138) was greater than 10.2 µM and the AUC (MPS-1-IN-1) was 0.971. It also gave an IC50 (MPS-1-IN-1) greater than 20 µM.
In the case of HCC202 (breast, adherent), the AUC (KU-55933) is reported as 0.979, the IC50 (KU-55933) is reported as greater than 10 µM and the AUC (CHIR-99021; [2]) is reported as 0.975. For the same cell line, the IC50 (CHIR-99021; [2]) was greater than 10 µM, the AUC (Zibotentan) was 0.962 and the IC50 (Zibotentan) was greater than 20 µM. It also gave an AUC (Thapsigargin) of 0.463, an IC50 (Thapsigargin) of 0.0244 µM and an AUC (Cytarabine) of 0.866. It also gave an IC50 (Cytarabine) greater than 2 µM, an AUC (ABT-888) of 0.976 and an IC50 (ABT-888) greater than 5 µM. For the same cell line, the AUC (GSK269962A) was 0.918, the IC50 (GSK269962A) was greater than 5 µM and the AUC (CP466722) was 0.707. The IC50 (CP466722) was 4.91 µM, the AUC (MPS-1-IN-1) was 0.981 and the IC50 (MPS-1-IN-1) was greater than 20 µM. It also gave an AUC ((5Z)-7-Oxozeaenol) of 0.864 and an IC50 ((5Z)-7-Oxozeaenol) greater than 10 µM.
HuP-T4 (pancreas, adherent) was tested, and the AUC (KU-55933) was 0.957, the IC50 (KU-55933) was greater than 10 µM and the AUC (CHIR-99021; [1]) was 0.984. The IC50 (CHIR-99021; [1]) was greater than 2.56 µM, the AUC (Zibotentan) was 0.979 and the IC50 (Zibotentan) was greater than 20 µM. The AUC (Thapsigargin) was 0.266, the IC50 (Thapsigargin) was 0.00656 µM and the AUC (Cytarabine) was 0.607. It also gave an IC50 (Cytarabine) of 0.25 µM, an AUC (ABT-888) of 0.984 and an IC50 (ABT-888) greater than 5 µM. For the same cell line, the AUC (ABT-869) was 0.952, the IC50 (ABT-869) was greater than 1.02 µM and the AUC (GSK269962A) was 0.756. For the same cell line, the IC50 (GSK269962A) was 1.81 µM, the AUC (CP466722) was 0.691 and the IC50 (CP466722) was 3.55 µM. The AUC (QL-X-138) was 0.698, the IC50 (QL-X-138) was 2.4 µM and the AUC (MPS-1-IN-1) was 0.84. For the same cell line, the IC50 (MPS-1-IN-1) was 15 µM.
Cell Line IGR-1 (melanoma, adherent) has an AUC (KU-55933) of 0.976, an IC50 (KU-55933) greater than 10 µM and an AUC (CHIR-99021; [1]) of 0.91. It also gave an IC50 (CHIR-99021; [1]) greater than 2.56 µM, an AUC (Zibotentan) of 0.98 and an IC50 (Zibotentan) greater than 20 µM. The AUC (Thapsigargin) was 0.332, the IC50 (Thapsigargin) was 0.0116 µM and the AUC (Cytarabine) was 0.943. It also gave an IC50 (Cytarabine) greater than 2 µM, an AUC (ABT-888) of 0.99 and an IC50 (ABT-888) greater than 5 µM. For the same cell line, the AUC (ABT-869) was 0.99, the IC50 (ABT-869) was greater than 1.02 µM and the AUC (GSK269962A) was 0.979. It also gave an IC50 (GSK269962A) greater than 5 µM, an AUC (CP466722) of 0.856 and an IC50 (CP466722) of 10.5 µM. For the same cell line, the AUC (QL-X-138) was 0.913, the IC50 (QL-X-138) was greater than 10.2 µM and the AUC (MPS-1-IN-1) was 0.836. It also gave an IC50 (MPS-1-IN-1) of 11 µM.

A lower IC50 marks a more sensitive line; where the fit passes the top or lowest dose, that dose stands as a limit. For AUC the same curve is integrated over the 256-fold range of doses and scaled to a fraction; it is 1 without any effect and falls as sensitivity rises. For some of these results: Any top dose called inferred is not printed in the source and was worked back from the curve model. For some of these results: An entry number marks a drug with two screens in the source, which often give different values.
